The campaign covered roughly 360,000 compounds. About 230 (0.064%) were called active. The inconclusive results got no clear call from the source; some entries with a clear call stand among them for comparison. Rule as the data show it: active = activity above about 50% (passing the limit was not always enough); inconclusive = no clear call, values can overlap the other calls.
What follows are compounds tested on DNA topoisomerase I (Yersinia pestis CO92) (assay: Yersinia pestis topoisomerase I inhibitors, primary screen, biochemical, cleavage product accumulation, plate reader, single point (AID 504884)). Conditions: Y. pestis Topo-I cleavage product accumulation, at 10 µM, stronger effect = higher value.

Structure (SMILES) | activity
O=C(Nc1scc(-c2ccc(F)cc2)c1C(=O)O)c1ccco1 | inactive: -7.01%
C[C@]12c3[nH]c4cc(-c5ccco5)ccc4c3CCN1C(=O)[C@@H](CC(=O)NCCN1CCOCC1)C[C@@H]2C(=O)N1CCOCC1 | inactive: 18.5%
O=C1c2ccc(-c3ccc(F)cc3OCc3ccccc3)cc2S(=O)(=O)c2cccc(C(=O)N3CCCC3)c21 | inconclusive: 57.4%
CC(=O)N1CCCc2cc(S(=O)(=O)N3CCCC(C(=O)N4CCN(c5cccc(Cl)c5)CC4)C3)ccc21 (centres undefined) | inconclusive: 54.7%
CC(C)OC(=O)C(C)(C)Oc1ccc(C(=O)c2ccc(Cl)cc2)cc1 | active: 52.8%
COc1cc2sc(-c3ccc(S(C)(=O)=O)cc3)c(C#CCO)c2cc1OC | inconclusive: 62%
Cc1ccc(S(=O)(=O)Nc2cc3c4c(c2)CCN4C(=O)CC3)cc1 | inconclusive: 110%
O=C(CC12CCC(CC1)C2)NCc1ccc2c(c1)OCO2 | inconclusive: 57.9%
C#CCN(C[C@@H]1[C@@H](OC(=O)NCCCCCC)[C@@H](OC(=O)NCCCCCC)Cn2c(=O)ccc(=O)n21)S(=O)(=O)c1ccc(C)cc1 | inconclusive: 50.2%
COc1ccc(C(=O)NCC(c2cccs2)N2CCc3ccccc32)c(OC)c1 (centres undefined) | inconclusive: 58.2%
CN(C)S(=O)(=O)c1ccc(N2CCCC2)c(C(=O)N2CCN(S(=O)(=O)c3cccc(F)c3)CC2)c1 | inconclusive: 51.3%
C/C(C/C(C)=C1/SC(=S)NC1=O)=C1\SC(=S)NC1=O | inactive: 6.51%
COc1ccc2c(-c3ccccc3)cc(SCC(N)=O)nc2c1 | inconclusive: 51.8%
CC(C)C(=O)Nc1cccc(COc2ccc(CN(Cc3ccccc3)C(=O)OC(C)(C)C)cc2)c1 | active: 53.1%
CCCCCCOC1(c2ccccc2)OC(=O)c2ccccc21 (centres undefined) | inconclusive: 50.3%
c1ccc(OCc2noc(CN3CC[C@@H]4CCCC[C@H]4C3)n2)cc1 | inconclusive: 58.5%
CNC(=O)CN(c1ccc(C23CC4CC(CC(C4)C2)C3)cc1)S(C)(=O)=O | inconclusive: 53%
COc1ccc(Cc2nnc3n2N=C(c2cc4ccccc4o2)CS3)cc1OC | active: 54.2%
COc1ccccc1C(=O)NCCSCc1c(F)cccc1Cl | inconclusive: 56.3%
COc1ccc(C2/C(=C(/O)c3ccc(C)cc3)C(=O)C(=O)N2c2ccccn2)cc1OC (centres undefined) | inactive: 5.23%
Cc1ccc(C2C(C(=O)c3cc4ccccc4o3)=C(O)C(=O)N2c2cc(C)on2)cc1 (centres undefined) | active: 84.7%
CC1CCC(C(C)C)C(OC(=O)COC(=O)c2cccn2C)C1 (centres undefined) | inconclusive: 51.7%
CN(C)CCCNC(=O)/C(=C/c1ccc(-c2ccc([N+](=O)[O-])cc2)o1)NC(=O)c1ccccc1 | inactive: -34.3%
O=C(N/N=C/c1c(O)n(Cc2ccccc2)c(=O)c2ccccc12)c1cccnc1 | inactive: -1.05%
COc1ccc(/C=N/NC(=O)c2cccnc2)cc1 | inactive: -1.46%
Cc1cccn2c(=O)c(C=Nc3ccccc3)c(NCc3ccco3)nc12 | inactive: -6.17%
COc1ccc(-n2nc3c(N4CCC(C(=O)NCc5ccccc5C)CC4)nnc(C)c3c2C)cc1 | inconclusive: 53.2%

Structure (SMILES) | activity
C#CCOCCOCCOCCNc1nc(N2CCN(C(=O)[C@H](C(C)C)n3cc(CCO)nn3)CC2)nc(N2CCN(C(=O)[C@H]([C@@H](C)CC)n3cc(CCCCN)nn3)CC2)n1 | inconclusive: 134%
Cc1nc2ccc(C(=O)NCc3ccc4c(c3)OCO4)cc2s1 | inactive: -10%
COc1ccccc1C(=O)OCC#CCSc1nnc(-c2cccc3ccccc23)o1 | active: 51.8%
CCOC(=O)C1(CCc2ccccc2)CCN(Cc2csc(C(C)=O)c2)CC1 | inconclusive: 72%
COc1ccc(NC(=O)NNC(=O)c2cc3ccccc3cc2O)cc1 | inactive: 9.58%
Cc1ccccc1S(=O)(=O)c1c(C)cc(C)n(CC(C)C)c1=O | inconclusive: 52.2%
O=C(NNC(=O)C(c1ccccc1)c1ccccc1)c1ccccn1 | inactive: -9.12%
COc1ccc(-c2ccccc2[C@H]2[C@@H]3C=CC[C@@H](C)[C@@H]3C(=O)N2Cc2ccccc2)cc1 | inconclusive: 51.2%
O=c1ccc2[n+]([O-])c3ccc(O)cc3oc-2c1 | active: 396%
O=C(C1CCC1)N1CCc2cc(S(=O)(=O)N3CCN(c4ccccn4)CC3)ccc21 | active: 55%
Cc1ccc(-c2n[nH]c(=S)n2Cc2ccccc2)cc1 | inactive: 2.28%
O=C(Cc1ccc(Cl)cc1)Nc1ccccc1Sc1ccccc1 | inconclusive: 51.9%
CC1=C/C(=C(/c2cc(C)c(O)c(Br)c2)c2ccccc2S(=O)(=O)O)C=C(Br)C1=O | active: 60.4%
c1ccc(-c2cc(-c3nnc4n3N=C(c3ccc5ccccc5c3)CS4)[nH]n2)cc1 | inconclusive: 58.2%
C[C@H]1CN([C@@H](C)CO)C(=O)Cc2cc(NC(=O)Cc3ccccc3)ccc2O[C@H]1CN(C)C(=O)Nc1cccc2ccccc12 | inconclusive: 68.1%
CCOc1ccc(C(=O)NCCC(=O)NCCCC(=O)O)cc1 | inconclusive: 65.1%
CCCc1ccc(C(=O)Cn2nc(C(=O)O)c3ccccc3c2=O)cc1 | inconclusive: 84.5%
CC1(C)CC(=O)C=C(c2ccc(F)cc2OCc2ccccc2)C1 | inconclusive: 53.9%
CCC(C)(C)n1nnnc1CN(Cc1ccc(Cl)cc1)Cc1ccco1 | inactive: 3.57%
Cc1ccccc1-c1nc(P(=O)(c2ccccc2)c2ccccc2)c(N2CCOCC2)o1 | active: 52.6%
COc1ccc(NC(=O)c2cc(S(=O)(=O)N3CCCCC3)c[nH]2)c(OC)c1 | inactive: -5.59%
O=C(c1ccc2nc3ccc(Cl)cc3c(=O)n2c1)N1CCOCC1 | inactive: 0.579%
COc1ccc(O)c(C(=O)c2cc(C(=O)NCCc3ccccc3)c(=O)n(CCc3ccccc3)c2)c1 | inconclusive: 50.2%
COCc1cccc(C2=CC(=O)C[C@H](c3ccc(F)cc3)C2)c1 | inconclusive: 51.8%
O=C(NC(=S)NC(c1ccccc1)c1ccncc1)c1ccccc1 (centres undefined) | inconclusive: 51%
COc1ccc(NC(=O)CSc2nc3ccccc3nc2N2CCOCC2)c(OC)c1 | inconclusive: 54.7%
CC(=O)Nc1ccc(C2=CC(=O)C[C@H](c3ccc4c(c3)OCO4)C2)cc1 | inactive: 19%

— PubChem BioAssay AID504884 (Broad Institute, 2011)
